Some of the results follow. Sequences were assembled here from the parent chain. Values near 0.05 are background.
B1: TEV protease; numbered along this chain (parent)
chain: MGESLFKGPRDYNPISSSICHLTNESDGHTTSLYGIGFGPFIITNKHLFRRNNGTLVVQSLHGVFKVKDTTTLQQHLVDGRDMIIIRMPKDFPPFPQKLKFREPQREERICLVTTNFQTKSMSSMVSDTSCTFPSGDGIFWKHWIQTKDGQCGSPLVSTRDGFIVGIHSASNFTNTNNYFTSVPKNFMELLTNQEAQQWVSGWRLNADSVLWGGHKVFMVKPEEPFQPVKEATQL

Variants of: B1
Assay: raw area under fraction-flipped curve 0-4 h after induction (AUC4h, not background-subtracted), DNA-recorder readout of cleavage of the substrate (dimensionless); higher = more cleavage of the substrate by the protease variant
Details: temperature: 34 °C; time window: 0-4 h after rhamnose induction
Experimental: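 In vivo DNA recorder in E. coli TOP10(DE3) ΔrhaA at 34 °C. Each TEVp single-site mutant (parent TEVp 0) is paired with a single-site variant of the 7-mer TEVs (canonical ENLYFQ|S). The substrate sits between flexible linkers in a Bxb1-sfGFP-TEVs-SsrA fusion, so cleavage stabilises Bxb1 and speeds flipping of a recombination array, read by NGS. The value is the raw area under the fraction-flipped curve over 0-4 h after rhamnose induction (AUC4h), with ≥20 reads per time point. It is not background-subtracted; inactive controls average about 0.047.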
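Further: Bxb1 expression induced with 0.2% (w/v) L-rhamnose at OD600 near 0.5, cultures sampled hourly, flipped fraction per protease–substrate barcode pair counted by paired-end Illumina sequencing.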

Variant	area with substrate EALYFQS	area with substrate EELYFQS	area with substrate EFLYFQS	area with substrate EGLYFQS	area with substrate EHLYFQS	area with substrate EILYFQS	area with substrate EKLYFQS	area with substrate ELLYFQS	area with substrate EMLYFQS	area with substrate ESLYFQS	area with substrate ETLYFQS	area with substrate EVLYFQS	area with substrate EYLYFQS	area with substrate ECLYFQS	area with substrate EPLYFQS	area with substrate ERLYFQS	area with substrate EWLYFQS	area with substrate EDLYFQS	area with substrate EQLYFQS
MGESLFKGPRDYNPISSSICHLTNESDGHTTSLYGIGFGPFIITNKHLFRRNNGTLVVQSLHGVFKVKDTTTLQQHLVDGRDMIIIRMPKDFPPFPQKLKFREPQREERICLVTTNFQTKSMSSMVSDTSCTFPSGDGIFWKHWIQTKDGQCGSPLVSTRDGFIVGIHSASNFTNTNNRFTSVPKNFMELLTNQEAQQWVSGWRLNADSVLWGGHKVFMVKPEEPFQPVKEATQL [Y179R]	0.0654	0.0697	0.0349	0.0546	0.0494	0.0544	0.0562	0.0543	0.0591	0.071	0.0588	0.0625	0.07	–	–	–	–	–	–
MGESLFKGPRDYNPISSSICHLTNESDGHTTSLYGIGFGPFIITNKHLFRRNNGTLVVQSLHGVFKVKDTTTLQQHLVDGRDMIIIRMPKDFPPFPQKLKFREPQREERICLVTTNFQTKSMSSMVSDTSCTFPSGDGIFWKHWIQTKDGQCGSPLVSTRDGFIVGIHSASNFTNTNNAFTSVPKNFMELLTNQEAQQWVSGWRLNADSVLWGGHKVFMVKPEEPFQPVKEATQL [Y179A]	0.0637	–	–	–	–	–	–	0.0504	–	0.0632	0.0646	–	–	0.0655	–	–	–	–	–
MGESLFKGPRDYNPISSSICHLTNESDGHTTSLYGIGFGPFIITNKHLFRRNNGTLVVQSLHGVFKVKDTTTLQQHLVDGRDMIIIRMPKDFPPFPQKLKFREPQREERICLVTTNFQTKSMSSMVSDTSCTFPSGDGIFWKHWIQTKDGQCGSPLVSTRDGFIVGIHSASNFTNTNNSFTSVPKNFMELLTNQEAQQWVSGWRLNADSVLWGGHKVFMVKPEEPFQPVKEATQL [Y179S]	0.0541	0.0637	0.0522	0.0507	–	0.055	–	0.0681	0.0602	0.0748	–	0.0482	0.0479	0.0573	0.0594	0.0628	0.054	–	–
MGESLFKGPRDYNPISSSICHLTNESDGHTTSLYGIGFGPFIITNKHLFRRNNGTLVVQSLHGVFKVKDTTTLQQHLVDGRDMIIIRMPKDFPPFPQKLKFREPQREERICLVTTNFQTKSMSSMVSDTSCTFPSGDGIFWKHWIQTKDGQCGSPLVSTRDGFIVGIHSASNFTNTNNEFTSVPKNFMELLTNQEAQQWVSGWRLNADSVLWGGHKVFMVKPEEPFQPVKEATQL [Y179E]	0.0698	–	–	–	–	–	–	–	0.0622	0.0504	–	–	–	–	–	–	0.0604	0.0662	–
MGESLFKGPRDYNPISSSICHLTNESDGHTTSLYGIGFGPFIITNKHLFRRNNGTLVVQSLHGVFKVKDTTTLQQHLVDGRDMIIIRMPKDFPPFPQKLKFREPQREERICLVTTNFQTKSMSSMVSDTSCTFPSGDGIFWKHWIQTKDGQCGSPLVSTRDGFIVGIHSASNFTNTNNYFFSVPKNFMELLTNQEAQQWVSGWRLNADSVLWGGHKVFMVKPEEPFQPVKEATQL [T181F]	0.0469	0.0598	–	–	–	0.0483	–	0.0207	0.0569	0.0798	0.0256	0.0653	0.0597	0.0526	0.06	–	0.0528	–	0.0543
MGESLFKGPRDYNPISSSICHLTNESDGHTTSLYGIGFGPFIITNKHLFRRNNGTLVVQSLHGVFKVKDTTTLQQHLVDGRDMIIIRMPKDFPPFPQKLKFREPQREERICLVTTNFQTKSMSSMVSDTSCTFPSGDGIFWKHWIQTKDGQCGSPLVSTRDGFIVGIHSASNFSNTNNYFTSVPKNFMELLTNQEAQQWVSGWRLNADSVLWGGHKVFMVKPEEPFQPVKEATQL [T174S]	0.171	–	–	0.138	–	–	–	0.099	–	–	–	–	–	0.125	–	–	–	–	–
MGESLFKGPRDYNPISSSICHLTNESDGHTTSLYGIGFGPFIITNKHLFRRNNGTLVVQSLHGVFKVKDTTTLQQHLVDGRDMIIIRMPKDFPPFPQKLKFREPQREERICLVTTNFQTKSMSSMVSDTSCTFPSGDGIFWKHWIQTKDGQCGSPLVSTRDGFIVGIHSASNFKNTNNYFTSVPKNFMELLTNQEAQQWVSGWRLNADSVLWGGHKVFMVKPEEPFQPVKEATQL [T174K]	0.0952	0.138	0.102	–	–	0.0843	–	–	–	0.0942	–	–	–	–	–	0.0943	0.0748	0.184	0.076
MGESLFKGPRDYNPISSSICHLTNESDGHTTSLYGIGFGPFIITNKHLFRRNNGTLVVQSLHGVFKVKDTTTLQQHLVDGRDMIIIRMPKDFPPFPQKLKFREPQREERICLVTTNFQTKSMSSMVSDTSCTFPSGDGIFWKHWIQTKDGQCGSPLVSTRDGFIVGIHSASNFTNTPNYFTSVPKNFMELLTNQEAQQWVSGWRLNADSVLWGGHKVFMVKPEEPFQPVKEATQL [N177P]	0.069	0.0621	–	0.0612	–	0.0517	0.0694	0.0598	0.0658	0.07	0.0704	0.0657	0.0712	0.0816	0.066	0.0609	0.105	–	0.0754
MGESLFKGPRDYNPISSSICHLTNESDGHTTSLYGIGFGPFIITNKHLFRRNNGTLVVQSLHGVFKVKDTTTLQQHLVDGRDMIIIRMPKDFPPFPQKLKFREPQREERICLVTTNFQTKSMSSMVSDTSCTFPSGDGIFWKHWIQTKDGQCGSPLVSTRDGFIVGIHSASNFTNTINYFTSVPKNFMELLTNQEAQQWVSGWRLNADSVLWGGHKVFMVKPEEPFQPVKEATQL [N177I]	0.167	–	–	–	–	0.116	–	–	0.231	0.164	0.155	0.122	–	0.101	–	0.172	–	0.205	0.11
